“And” between values parts separate entries of the source, which are not always exact repeats. Equal values may be shown once. Hit rate of the full screen: of about 220,000 compounds, about 5,700 (2.6%) were called active. The shares of active, inactive and inconclusive entries below differ from those in the screen. The call rests on the fitted dose curve; in most records, active means well fitted inhibition curve with a large enough effect; inconclusive means small, poorly fitted or top-dose-only effect; inactive means no such curve, though single readings can be large or run the other way. A potency beside an inconclusive call is a rough fit, not a confirmed value.
Biological target: Lysine-specific demethylase 5B (Homo sapiens) (UniProt Q9UGL1)
Assay: Primary screen for KDM5B Histone Demethylases FDH-coupled qHTS; further: nearly all actives have a fitted effect of over 70% in size; on activity change, negative = inhibition: 0% is about no effect
Conditions: FDH-coupled NADH fluorescence (FDH is formaldehyde dehydrogenase); activity change, negative = inhibition: at 57.7 µM (top of the series) unless noted
How it was run: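 Here, H3K4me3 peptide (12.5 µM in substrate mix) is demethylated by KDM5BΔAP, 200 nM final, after 10 min compound exposure. Formaldehyde product is coupled through FDH (0.25 U/mL in mix) to NADH fluorescence; 30-min ΔRFU feeds dose-response curves.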
Potency means the concentration at half of the fitted maximal effect; tags describe the fitted curve by direction and shape.

Chain of UniProt Q9UGL1 (Q9UGL1 whole entry, looked up): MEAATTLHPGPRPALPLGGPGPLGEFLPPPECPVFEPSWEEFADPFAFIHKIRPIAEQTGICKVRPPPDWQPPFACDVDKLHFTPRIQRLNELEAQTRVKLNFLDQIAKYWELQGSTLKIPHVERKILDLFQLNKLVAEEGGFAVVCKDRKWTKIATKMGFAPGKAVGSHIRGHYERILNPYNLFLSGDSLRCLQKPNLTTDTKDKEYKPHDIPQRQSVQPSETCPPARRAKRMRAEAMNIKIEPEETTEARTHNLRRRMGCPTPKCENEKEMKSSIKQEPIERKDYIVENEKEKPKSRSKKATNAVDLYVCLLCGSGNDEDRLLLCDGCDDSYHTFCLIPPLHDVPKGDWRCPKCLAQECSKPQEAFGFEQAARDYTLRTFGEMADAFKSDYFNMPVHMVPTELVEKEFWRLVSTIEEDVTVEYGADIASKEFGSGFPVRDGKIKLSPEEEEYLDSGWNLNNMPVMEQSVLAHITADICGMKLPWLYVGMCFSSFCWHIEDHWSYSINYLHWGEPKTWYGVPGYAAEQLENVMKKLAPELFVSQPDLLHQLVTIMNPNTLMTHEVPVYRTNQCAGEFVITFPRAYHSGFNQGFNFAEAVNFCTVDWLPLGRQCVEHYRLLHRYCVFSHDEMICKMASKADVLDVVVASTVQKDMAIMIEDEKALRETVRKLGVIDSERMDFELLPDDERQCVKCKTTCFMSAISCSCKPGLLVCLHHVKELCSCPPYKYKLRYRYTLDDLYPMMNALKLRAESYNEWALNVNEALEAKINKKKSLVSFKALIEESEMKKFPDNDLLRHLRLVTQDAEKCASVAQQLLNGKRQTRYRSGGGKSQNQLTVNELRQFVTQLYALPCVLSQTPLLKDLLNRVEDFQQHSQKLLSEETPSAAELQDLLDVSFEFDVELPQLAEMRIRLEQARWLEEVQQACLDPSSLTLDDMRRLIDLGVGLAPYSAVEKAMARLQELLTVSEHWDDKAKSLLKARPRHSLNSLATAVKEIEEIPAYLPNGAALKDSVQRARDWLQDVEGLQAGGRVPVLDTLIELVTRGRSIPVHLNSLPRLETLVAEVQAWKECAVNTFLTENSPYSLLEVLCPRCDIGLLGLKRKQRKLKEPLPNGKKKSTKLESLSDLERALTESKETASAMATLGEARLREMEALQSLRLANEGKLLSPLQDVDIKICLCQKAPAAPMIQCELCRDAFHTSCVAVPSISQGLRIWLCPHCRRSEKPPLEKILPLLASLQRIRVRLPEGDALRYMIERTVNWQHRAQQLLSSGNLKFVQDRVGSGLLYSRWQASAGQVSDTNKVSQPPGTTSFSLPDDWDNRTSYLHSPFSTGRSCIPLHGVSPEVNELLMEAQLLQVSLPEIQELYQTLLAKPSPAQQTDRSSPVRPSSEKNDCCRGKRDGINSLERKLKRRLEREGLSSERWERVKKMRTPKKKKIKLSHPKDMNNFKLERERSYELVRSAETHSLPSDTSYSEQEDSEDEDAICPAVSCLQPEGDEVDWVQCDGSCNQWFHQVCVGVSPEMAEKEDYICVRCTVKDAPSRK

**Q.** For COc1ccc(CNc2ncnc3c2CN(C2CCCNCC2)C(=O)CN3C)cc1 (stereo not drawn), which Potency is on record?
**A.** The Potency was inconclusive: 50.1 µM [inhibitor, partial curve].

**Q.** For O=C(NCc1ccccc1)C(=O)Nc1nc(-c2ccccc2)cs1, which Potency is on record?
**A.** Its Potency is inconclusive: 28.2 µM [inhibitor, single point].

**Q.** O=S(=O)(c1cccnc1)N1CC(F)(F)C[C@H]1c1nc(C2CC2)no1 was tested. Which Potency did it give?
**A.** The Potency was inconclusive: 39.8 µM [inhibitor, single point].

**Q.** How did the Potency turn out when O=C1c2c(nc(COc3ccc4c(c3)OCO4)n2Cc2ccccc2)NCCN1Cc1ccccc1F was run?
**A.** The Potency was inconclusive: 17.8 µM [inhibitor, partial curve, poor fit].

**Q.** For O=C(Nc1ccc(Cl)cc1)c1nc2c(o1)CCN(Cc1cccc(F)c1)CC2, which Potency is on record?
**A.** The Potency was inconclusive: 39.8 µM [inhibitor, partial curve, poor fit].

**Q.** Which Potency does the source give for Cc1ccc(C)c(NC(=O)Cn2c(=O)n(Cc3ccco3)c(=O)c3ccc(C(=O)NC4CCCC4)cc32)c1 here?
**A.** Its Potency is inconclusive: 14.1 µM [inhibitor, partial curve, poor fit].

**Q.** O=C(N[C@H]1CCN2C(=O)c3cc(-c4ccc5c(c4)OCO5)ccc3NC(=O)[C@H]12)C1CCCC1 was tested. Which Potency did it give?
**A.** Its Potency is inconclusive: 39.8 µM [inhibitor, single point].

**Q.** O=C(Cc1cccn1-c1ccc(F)cc1)NCCN1CCc2ccccc2C1 was tested. Which Potency did it give?
**A.** The Potency was inconclusive: 28.2 µM [inhibitor, partial curve, poor fit].

**Q.** How did the Potency turn out when O=C(Cn1c(=O)oc2ccccc21)NCC1Cn2cccc2C(=O)N1Cc1cccnc1 (stereo not drawn) was run?
**A.** Its Potency is “inactive”.

**Q.** How did the Potency turn out when O=C(N/N=C/c1ccccc1Br)c1ccc(Br)s1 was run?
**A.** The Potency was “inactive”.

**Q.** With O=C(CC[C@@H]1CNC(=O)[C@@H]2C[C@H](NCc3ccccn3)CN12)NCc1ccc(F)cc1 as the molecule, how does the Potency read?
**A.** Its Potency is inconclusive: 25.1 µM [inhibitor, partial curve].

**Q.** For O=C(Nc1ccc2oc(-c3cccnc3)nc2c1)c1ccccc1Cl, which Potency is on record?
**A.** The Potency was inconclusive: 28.2 µM [inhibitor, partial curve, poor fit].

**Q.** How did the Potency turn out when CCOc1cc(C(=O)NC2CCN(c3cc(-c4cccs4)[nH]n3)C2)cc(OCC)c1OCC (stereo not drawn) was run?
**A.** The Potency was inconclusive: 25.1 µM [inhibitor, partial curve, poor fit].

**Q.** Which Potency does the source give for NC(=O)C1(N2CCCCC2)CCN(c2nccc(-c3ccncc3)n2)CC1 here?
**A.** The Potency was inconclusive: 35.5 µM [inhibitor, single point].

**Q.** Which Potency does the source give for CCOc1ccccc1C(=O)NCc1nnc2ccc(-c3ccc(C)c(C)c3)nn12 here?
**A.** The Potency was active: 31.6 µM.

**Q.** Cc1occc1-c1nc2ccncc2[nH]1 was tested. Which Potency did it give?
**A.** The Potency was inconclusive: 141 µM [inhibitor, partial curve, poor fit] and active: 31.6 µM.

**Q.** Which Potency does the source give for CCc1noc(-c2cn(C3CCN(C(=O)C4(c5ccccc5)CC4)C3)nn2)n1 (stereo not drawn) here?
**A.** The Potency was “inactive”.

**Q.** How did the Potency turn out when O=C(Cn1c(SCCOc2ccccc2Cl)nc2ccccc21)N1CCCCC1 was run?
**A.** The Potency was inconclusive: 25.1 µM [inhibitor, single point].

**Q.** Which Potency does the source give for COC(=O)C1CN(C(=O)COc2ccc(Cl)cc2Cl)c2ccccc2O1 (stereo not drawn) here?
**A.** The Potency was inconclusive: 3.16 µM [inhibitor, partial curve, poor fit].

**Q.** With CC1=C(C(=O)Nc2cccc(C(F)(F)F)c2)C(c2ccccn2)n2ncnc2N1 (stereo not drawn) as the molecule, how does the Potency read?
**A.** The Potency was inconclusive: 17.8 µM [inhibitor, single point].

**Q.** Which activity change, negative = inhibition does the source give for CCC(=O)Nc1ccccc1-c1nc2ccccc2n(CC(=O)c2ccc(Br)cc2)c1=O here?
**A.** The activity change, negative = inhibition was inconclusive: -31% [inhibitor].

**Q.** Which Potency does the source give for Cc1ccc(-c2noc([C@@H]3Cc4nc[nH]c4CN3CC3CCCCC3)n2)cc1 here?
**A.** Its Potency is inconclusive: 35.5 µM [inhibitor, partial curve].

**Q.** CC(C)Sc1ccc2nn(CC(=O)Nc3ccccc3F)c(=O)n2n1 was tested. Which Potency did it give?
**A.** The Potency was “inactive”.

**Q.** With COc1ccccc1CNC(=O)CSc1nnc(-c2ccco2)n1C as the molecule, how does the Potency read?
**A.** The Potency was “inactive”.

**Q.** Which Potency does the source give for O=C(NCCc1nc2ccccc2[nH]1)c1cccc(N2CCCN(Cc3ccccc3)C2=O)c1 here?
**A.** The Potency was “inactive”.

**Q.** For COc1ccc(N2CCN(C(=O)c3nn(C)c4c3CSc3ccccc3-4)CC2)cc1, which Potency is on record?
**A.** The Potency was inconclusive: 28.2 µM [inhibitor, partial curve, poor fit].

**Q.** For Cc1c(-c2cccc(Cl)c2)nn2c1NC(=O)CC2C(=O)Nc1ccc2c(c1)OCO2 (stereo not drawn), which Potency is on record?
**A.** The Potency was “inactive”.

**Q.** Which Potency does the source give for CC(=O)N1CCN(c2ccc3nnc(-c4cc(C(=O)N(C)C)ccn4)n3n2)CC1 here?
**A.** Its Potency is inconclusive: 20 µM [inhibitor, partial curve, poor fit].

**Q.** O=C(O)C1CCCN(c2cn[nH]c(=O)c2)C1 (stereo not drawn) was tested. Which Potency did it give?
**A.** The Potency was inconclusive: 20 µM [inhibitor, partial curve].

**Q.** Which Potency does the source give for O=C(NCC1CC1)c1cc2n(n1)CC(c1ccc3c(c1)OCO3)OC2 (stereo not drawn) here?
**A.** The Potency was “inactive”.

**Q.** O=C1/C(=C/c2ccc(-c3ccc(F)cc3)o2)Cc2ccccc21 was tested. Which Potency did it give?
**A.** Its Potency is “inactive”.

**Q.** Which Potency does the source give for CC(NC(=O)C(=O)Nc1ccccc1Cl)c1ccccc1 (stereo not drawn) here?
**A.** Its Potency is “inactive”.

**Q.** With CCCn1c2ccccc2c2cnn(CC(=O)NCCc3cc(OC)ccc3OC)c(=O)c21 as the molecule, how does the Potency read?
**A.** The Potency was inconclusive: 28.2 µM [inhibitor, single point].

**Q.** Which Potency does the source give for CC(C)(CNC(=O)c1cccc(F)c1)CNC(=O)c1cccc(F)c1 here?
**A.** Its Potency is inconclusive: 25.1 µM [inhibitor, partial curve, poor fit].

**Q.** With COc1ccccc1C(=O)NC(=S)Nc1ccc(Cc2ccncc2)cc1 as the molecule, how does the Potency read?
**A.** Its Potency is inconclusive: 22.4 µM [inhibitor, single point].

**Q.** How did the Potency turn out when COc1ccc(C(=O)NC2CCN(c3cc(-c4ccc(Cl)cc4)[nH]n3)CC2)c(C)c1 was run?
**A.** The Potency was “inactive”.

**Q.** Cc1nc(SCC(=O)c2ccc(F)cc2)n[nH]1 was tested. Which Potency did it give?
**A.** Its Potency is inconclusive: 39.8 µM [inhibitor, single point].

**Q.** Cc1cc(C(=O)NC2CCCCC2)c2cccc(C)c2n1 was tested. Which Potency did it give?
**A.** The Potency was “inactive”.

**Q.** Cc1noc(C)c1-c1cc2cc(CO)oc2c(-c2ccc([S+](C)(=O)[O-])cc2)n1 was tested. Which Potency did it give?
**A.** The Potency was active: 35.5 µM.

**Q.** For Cc1csc(Nc2ccc3c(n2)CN(C)C(=O)CO3)n1, which Potency is on record?
**A.** The Potency was “inactive”.

**Q.** For Cc1ccc(CNC(=O)COC(=O)c2ccc3c(c2)NC(=O)CS3)cc1, which Potency is on record?
**A.** Its Potency is “inactive”.

**Q.** Which Potency does the source give for Cc1ccc(S(=O)(=O)N2CCCc3cc(NC(=O)c4ccc(C(C)(C)C)cc4)ccc32)cc1 here?
**A.** The Potency was inconclusive: 17.8 µM [inhibitor, single point].

**Q.** For S=C(NCc1ccccc1)N/N=C/c1cccnc1, which Potency is on record?
**A.** The Potency was “inactive”.
